Experimental data: PubChem BioAssay AID624296 (National Center for Advancing Translational Sciences (NCATS), 2012)
In all, about 350,000 compounds went through this assay and about 9,900 (2.8%) were called active. Inconclusive results, whose numbers are uncertain, are shown with a selection of clear calls. Calls come from the whole dose curve; as a rule, active = well fitted activation curve with a large enough effect; inconclusive = small, poorly fitted or top-dose-only effect; inactive = no such curve, though single readings can be large or run the other way. Potencies of inconclusive entries are left out as doubtful fits.
Potency is the fitted concentration of half-maximal effect; tags give direction and shape of the fitted curve.

Assay: A quantitative high throughput screen for small molecules that induce DNA re-replication in MCF 10a normal breast cells. For activity, positive = re-replication: % of control where 0% means no effect. Note: nearly all actives have a fitted effect of over 50% in size.
Settings: MCF 10A DNA re-replication, Hoechst nuclear intensity, 48 h; activity, positive = re-replication: at 46.1 µM (top of the series)
In the case of `CCCCC(=O)Nc1ccc(C(=O)NCCc2ccccc2)cc1`, the “activity, positive = re-replication” value is reported as inactive: 1.61%. With `CN(CC(=O)Nc1cccc(F)c1)C(=O)Cn1cnc2c1c(=O)n(C)c(=O)n2C` the “activity, positive = re-replication” value was inactive: -25%. For `C=CCS/C(N)=N\N=C\c1c(O)ccc2ccccc12`, the Potency was inconclusive [activator, partial curve]. In the case of `COc1cccc(NC(=O)NC2CCN(CC(=O)Nc3ccccc3[N+](=O)[O-])CC2)c1`, the Potency is reported as inconclusive [activator, single point]. With `FC(F)(F)c1cc(CCN2C(=S)NC[C@@H]2c2ccccc2)cc(C(F)(F)F)c1` the Potency was inconclusive [activator, single point]. For `CC(C(=O)Nc1c2c(cc3c1CCC3)CCC2)N1CCCC1` (stereo unspecified), the “activity, positive = re-replication” value was inactive: 0.0367%. With `CC(=O)Nc1ccc(NC(=O)c2ccc(NC(=O)c3ccccc3)cc2)cc1` the “activity, positive = re-replication” value was inactive: 1.23%. With `N=c1c2c(n(Cc3ccc(F)cc3)c3c1CCC3)CCC2` the “activity, positive = re-replication” value was inactive: -3.04%. In the case of `N#CCN1C(=O)C(=O)N(Cc2cccc(C(F)(F)F)c2)C1=O`, the “activity, positive = re-replication” value is reported as inactive: 3.01%. In the case of `CN(CCOc1ccc(Cl)cc1)Cc1cccc(S(=O)(=O)N(C)C)c1`, the Potency is reported as inconclusive [activator, single point]. In the case of `O=C(OCC1OC(n2ncc(=O)[nH]c2=O)C(OC(=O)c2ccccc2)C1OC(=O)c1ccccc1)c1ccccc1` (stereo unspecified), the Potency is reported as inconclusive [activator, single point]. With `Cc1cc(NCCCN2CCOCC2)n2nc(C)c(-c3ccc(F)cc3)c2n1` the “activity, positive = re-replication” value was inactive: 19.2%. With `COc1ccc(CCC(=O)Nc2nnc(C)s2)cc1` the “activity, positive = re-replication” value was inactive: -6.51%. For `CCOc1ccc(CSCCNC(=S)Nc2ccccc2)cc1`, the “activity, positive = re-replication” value was inactive: 0.335%. In the case of `C#CCN1C(=O)S/C(=C\c2cc3c(cc2OC)OCO3)C1=O`, the Potency is reported as inconclusive [activator, single point]. With `N#C/C(=C\c1ccc([N+](=O)[O-])o1)C(=O)Nc1ccc(F)cc1` the Potency was inconclusive [activator, single point]. For `Cc1ccsc1C(=O)OCC(=O)N1CC(C)CC(C)C1` (stereo unspecified), the Potency was inconclusive [activator, single point]. With `C=CCn1c(=N)n(CC(=O)c2ccc(Cl)cc2)c2ccccc21` the Potency was inconclusive [activator, partial curve, poor fit]. For `Clc1ccc(/C=N/NC(=Nc2ccccc2)c2ccccn2)c(Cl)c1`, the Potency was inconclusive [activator, single point]. In the case of `COC(=O)CNC(=O)C1Nc2ccc(OC(F)(F)F)cc2C2C=CCC12` (stereo unspecified), the Potency is reported as inconclusive [activator, full curve, poor fit]. With `Nc1nnc(CC(=O)N/N=C/c2ccc(-c3ccc(Cl)cc3Cl)o2)s1` the Potency was inconclusive [activator, single point].
